In PMC4336329 (PLoS ONE, 2015):
The whole screen tested about 310,000 compounds, of which about 14,000 (4.5%) showed an effect of 50% or more. Effects have a minus sign here. The list shows a part of the results.

The molecules below were run against human ether-à-go-go-related gene (hERG) potassium channel (human, UniProt Q12809) (assay: primary screen, population patch clamp on CHO cells stably expressing hERG).
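Also: peak tail current of the secondary pulse compared with the same well before compound.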

Sequence of human ether-à-go-go-related gene (hERG) potassium channel (Q12809 whole entry, looked up): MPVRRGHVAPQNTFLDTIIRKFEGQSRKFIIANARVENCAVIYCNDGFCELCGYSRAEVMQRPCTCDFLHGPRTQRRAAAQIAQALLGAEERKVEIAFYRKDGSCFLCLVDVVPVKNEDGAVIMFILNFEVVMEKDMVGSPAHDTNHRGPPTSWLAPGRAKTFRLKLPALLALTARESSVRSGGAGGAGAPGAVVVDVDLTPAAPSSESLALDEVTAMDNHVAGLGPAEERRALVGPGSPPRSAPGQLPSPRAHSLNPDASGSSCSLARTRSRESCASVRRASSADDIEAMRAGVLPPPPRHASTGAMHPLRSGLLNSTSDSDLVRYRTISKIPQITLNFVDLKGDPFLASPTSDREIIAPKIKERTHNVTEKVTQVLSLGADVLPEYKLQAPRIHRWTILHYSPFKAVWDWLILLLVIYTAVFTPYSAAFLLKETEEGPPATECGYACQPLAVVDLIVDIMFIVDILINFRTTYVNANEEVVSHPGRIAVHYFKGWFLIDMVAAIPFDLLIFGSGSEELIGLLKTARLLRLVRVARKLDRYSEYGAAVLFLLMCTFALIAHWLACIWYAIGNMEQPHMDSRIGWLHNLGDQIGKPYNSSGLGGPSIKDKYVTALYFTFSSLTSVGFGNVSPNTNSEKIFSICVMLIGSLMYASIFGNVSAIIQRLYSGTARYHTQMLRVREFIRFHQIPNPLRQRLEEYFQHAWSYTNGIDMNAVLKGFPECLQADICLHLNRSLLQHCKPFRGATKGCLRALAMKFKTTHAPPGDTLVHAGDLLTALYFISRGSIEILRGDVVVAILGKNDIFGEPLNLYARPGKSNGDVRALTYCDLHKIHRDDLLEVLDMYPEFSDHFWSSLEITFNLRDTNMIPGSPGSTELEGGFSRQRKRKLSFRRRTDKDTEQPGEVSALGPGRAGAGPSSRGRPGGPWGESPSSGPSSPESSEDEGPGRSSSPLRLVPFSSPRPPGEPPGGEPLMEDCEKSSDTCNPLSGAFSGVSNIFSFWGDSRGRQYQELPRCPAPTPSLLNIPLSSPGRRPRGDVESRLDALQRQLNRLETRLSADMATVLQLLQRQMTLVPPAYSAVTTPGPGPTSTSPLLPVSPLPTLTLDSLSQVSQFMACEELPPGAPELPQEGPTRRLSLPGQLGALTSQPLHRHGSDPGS

Point of comparison: `O=C(COc1ccc(C2SCCS2)cc1)Nc1ccc(Cl)cc1`, “hERG current change (%, negative = inhibition) at 10uM” value 0.33%. Against it:
- CC(C)N(C(=O)CSc1nnc(Cc2ccc3c(c2)OCO3)n1C)C(C)C — lower, -7.02%
- COc1cc(SC)ccc1C(=O)NCCOc1ccc(Cl)cc1 — lower, -21.3%
- CCOc1ccc(CCNC(=O)CN2C(=O)NC3(CCCC3)C2=O)cc1OCC — higher, 6.57%
- Cc1ccccc1-c1nc(CS(=O)(=O)CC(=O)NC2CC2)c(C)o1 — higher, 12.5%
- CCN(CC(=O)Nc1ccc(OC)cc1)C(=O)Cc1ccsc1 — higher, 4.6%
- COc1ccc(OC)c(CN2CCN(C(=O)c3ccco3)CC2)c1.O=C(O)C(=O)O — lower, 0.201%
- CC(NC(=O)CCCc1nnc2n(C)c(=O)c3sccc3n12)c1ccccc1 (stereo not drawn) — lower, -12.6%
- Cc1cccc(NS(=O)(=O)c2cccc(C(=O)N3CCCCCCC3)c2)c1 — lower, -30.1%
- Cc1cc(NC(=O)C2C3C(=O)N(CCC(C)C)C(C(=O)NCc4ccccc4)C34C=CC2(C)O4)no1 (stereo not drawn) — higher, 16.2%
- Cc1ccccc1-n1c(-c2csc3ccccc23)n[nH]c1=S — higher, 6.92%
- COc1cccc(C(=O)N/N=C(\C)c2cccc(NC(=O)c3ccc(F)cc3)c2)c1OC — lower, -35.8%
- CNc1ccc(Br)cc(C(=O)/C=C/c2ccc(Cl)cc2Cl)c1=O — lower, -8.01%
- COCCn1c(C)cc(C(=O)COc2ccc(C)nc2[N+](=O)[O-])c1C — lower, -2.42%
- COc1cccc(-c2nc(CS(=O)(=O)CC(=O)Nc3cccc(C(C)=O)c3)c(C)o2)c1 — higher, 17%
- O=C(COC(=O)c1ccc(F)cc1F)Nc1ccc(Cl)cn1 — lower, -3.65%
- CC(=O)c1ccc(NC(=O)CC2Nc3cccc4cccc(c34)NC2=O)cc1 (stereo not drawn) — higher, 14%
- COc1cccc(CNC(=O)CCCn2nc(C)c3c(C)n(-c4ccc(C)cc4)nc3c2=O)c1OC — higher, 11%
- O=c1[nH]c(C2CCN(S(=O)(=O)Cc3ccccc3)CC2)nc2c1nnn2Cc1ccccc1Cl — higher, 21.5%
- Cc1ccc(C)c(C(=O)CN2C(=O)c3ccccc3S2(=O)=O)c1 — higher, 14.3%
- CC(C)(C)NC(=O)NCC1CCCC1NC(=O)NC(C)(C)C (stereo not drawn) — higher, 15.3%
- CN1CCN(CCCNC(=O)CCCOc2cc(=O)n(C)c3ccccc23)CC1 — lower, 0.289%
- FC(F)(F)c1cc(CCN2C(=S)NC[C@@H]2Cc2ccccc2)cc(C(F)(F)F)c1 — higher, 17.6%
- CCc1ccc(N2C(=O)Nc3ccccc3C2(O)C(=O)N2CCN(c3ccccn3)CC2)cc1 (stereo not drawn) — lower, -5.24%
- CCCC(=O)Nc1ccc(N2CCCCC2)cc1 — lower, -8.42%
- CCOC(=O)C1CCCN(C(=O)c2ccc(Cl)c(S(=O)(=O)N3CCCCCC3)c2)C1 (stereo not drawn) — lower, -70.7%
- COc1ccc(CCn2c([O-])cc3nn(-c4nc5ccccc5s4)c(=O)c-3c2C)cc1 — higher, 10.2%
- C[C@@H](C(=O)Nc1ccc2ccccc2c1)[C@@H]1C[C@@]1(C)[C@@H](NC(=O)c1ccccc1)c1ccccc1 — lower, -10.1%
- COc1cccc(C(=O)Oc2ccc(/C=N/Nc3ccc(C(=O)O)cc3)cc2OC)c1 — higher, 21.7%
- O=C(Cc1cccs1)N1CCN=C1SCc1ccc(Br)cc1 — higher, 0.534%
- O=C(CCCN1C(=O)c2cccc3cccc(c23)C1=O)N1CCN(c2ccccn2)CC1 — lower, -11.9%
- O=C(Nc1ccc(O)cc1)C1CCCN1S(=O)(=O)c1ccc(F)cc1 (stereo not drawn) — lower, -1.44%
- COc1ccc(NC(=O)c2ccc(CNc3c(NC4CCCCC4)c(=O)c3=O)cc2)cc1OC — lower, -24.2%
- CSCC[C@H](NC(=O)OC(C)(C)C)c1nnc(SCC=C(C)C)o1 — lower, -29.1%
- CC(=O)NN1C(=O)c2ccc(Oc3cccc([N+](=O)[O-])c3)cc2C1=O — lower, -28.7%
- CCN(CC)S(=O)(=O)c1ccc(N(C)C)c(NC(=O)C2CCCC2)c1 — lower, -10.8%
- CCc1cc2c(=O)c(-c3nc4ccccc4n3C)c(COCC(=O)O)oc2cc1O — higher, 7.39%
- COc1cc2c(cc1OC)CN(C(=O)CSc1nc(C)cc(C)c1C#N)CC2 — lower, -14.8%
- O=C(Cc1ccccc1)N(c1ccc(F)cc1)C1C=CS(=O)(=O)C1 (stereo not drawn) — lower, -3.93%
- CCCc1cc2c(=O)c(-c3cscn3)c(C(=O)OCC)oc2cc1O — lower, -2.33%
- COc1ccccc1C(=O)N(Cc1ccco1)C1CCS(=O)(=O)C1 (stereo not drawn) — higher, 1.2%
- COc1ccc(CCNC(=O)c2ccc3c(c2)OCO3)cc1 — lower, -2.88%
